Reference: the supplement of paper PMC10326071
Several values for one entry are separate records, joined by “and”; a condition that tells them apart may be missing. Equal entries are not always repeated. Some of the results follow. Many values rest on one well or one pass, so single values are uncertain.

Assays:
[1] = system: SARS-CoV-2 nsp3 SARS-unique domain core (SUD-core, nsp3 residues 413-676); experiment: dissociation rate constant koff (BLI); higher = faster dissociation; conditions: 100 µM; 25 °C
[2] = system: SARS-CoV-2 nsp3 SARS-unique domain core (SUD-core, nsp3 residues 413-676); experiment: apparent dissociation constant Kd (single-concentration BLI fit); higher = weaker binding; conditions: 100 µM; 25 °C

Compound: CCCCCCCCCCCCCCCCCCOP(=O)([O-])OC1CC[N+](C)(C)CC1
- dissociation rate constant koff [1]: 0.00101 s⁻¹
- apparent dissociation constant Kd [2]: 2.88 µM

Compound: Cc1c[nH]c(/C=C2\C(=O)Nc3ccccc32)c1CCC(=O)O
- dissociation rate constant koff [1]: 0.0706 s⁻¹
- apparent dissociation constant Kd [2]: 565 µM

Compound: CN(C)C/C=C/C(=O)Nc1cccc(C(=O)Nc2cccc(Nc3ncc(Cl)c(-c4c[nH]c5ccccc45)n3)c2)c1
- dissociation rate constant koff [1]: 0.0231 s⁻¹
- apparent dissociation constant Kd [2]: 67.7 µM

Compound: O=C(c1ccc(/C=C/c2n[nH]c3ccccc23)cc1)N1CCNCC1
- dissociation rate constant koff [1]: 1.04 s⁻¹
- apparent dissociation constant Kd [2]: 119 µM

Compound: Cc1nc2c(-c3cnc(N)nc3)nc(N3CCOCC3)nc2n1C(C)C
- dissociation rate constant koff [1]: 0.553 s⁻¹

Compound: Cc1c[nH]c2nc(Nc3ccc(N4CCN(C)CC4)c(F)c3)nc(-c3cccc(CC#N)c3)c12
- dissociation rate constant koff [1]: 0.236 s⁻¹
- apparent dissociation constant Kd [2]: 2720 µM

Compound: Cc1cnc(Nc2ccc(OCCN3CCCC3)cc2)nc1Nc1cccc(S(=O)(=O)NC(C)(C)C)c1
- dissociation rate constant koff [1]: 0.437 s⁻¹ and 0.667 s⁻¹

Compound: O=C1c2c(O)ccc(O)c2C(=O)c2c(NCCNCCO)ccc(NCCNCCO)c21
- dissociation rate constant koff [1]: 1.21 s⁻¹ and 0.473 s⁻¹

Compound: O=c1[nH]cnc2nc[nH]c12
- dissociation rate constant koff [1]: 0.0174 s⁻¹
- apparent dissociation constant Kd [2]: 122 µM

Compound: Nc1ccn([C@@H]2O[C@H](CO)[C@@H](O)C2(F)F)c(=O)n1
- dissociation rate constant koff [1]: 0.0112 s⁻¹ and 0.0114 s⁻¹

Compound: CN[C@@H](C)[C@H]1[C@H](O)C[C@@]2(C)[C@@H]3CC[C@H]4C(C)(C)[C@@H](NC)CC[C@@]45C[C@@]35CC[C@]12C
- dissociation rate constant koff [1]: 0.0819 s⁻¹
- apparent dissociation constant Kd [2]: 17.8 µM

Compound: CNC(=O)c1cccc(-c2ccc3c(N4CCOC[C@@H]4C)nc(N4CCOC[C@@H]4C)nc3n2)c1
- dissociation rate constant koff [1]: 0.0751 s⁻¹
- apparent dissociation constant Kd [2]: 7860 µM

Compound: O=C(NCCN1CCOCC1)Nc1nc2ccc(Sc3nnc4ccc(-c5ccc(F)cc5)nn34)cc2s1
- dissociation rate constant koff [1]: 0.103 s⁻¹
- apparent dissociation constant Kd [2]: 8830 µM

Compound: N#Cc1c(C2CCNCC2)cc(-c2c(O)cccc2OCC2CC2)nc1N
- dissociation rate constant koff [1]: 0.605 s⁻¹
- apparent dissociation constant Kd [2]: 1810 µM

Compound: Nc1ncnc2c1C(Nc1ccc(F)cc1)N=N2 (configuration not stated)
- dissociation rate constant koff [1]: 0.047 s⁻¹
- apparent dissociation constant Kd [2]: 6960 µM

Compound: C[C@@]1(C(=O)Nc2ccc(F)nc2)CCCN1c1nc(Nc2cc(C3CC3)[nH]n2)c2cccn2n1
- dissociation rate constant koff [1]: 0.778 s⁻¹

Compound: CCc1cccc(CC)c1NC(=O)c1nn(C)c2c1CCc1cnc(Nc3ccc(C(=O)NC4CCN(C)CC4)cc3OC(F)(F)F)nc1-2
- dissociation rate constant koff [1]: 0.0305 s⁻¹
- apparent dissociation constant Kd [2]: 3780 µM

Compound: COCCOc1cc2nccc(Nc3n[nH]c(C)c3C)c2cc1S(=O)(=O)C(C)(C)C
- dissociation rate constant koff [1]: 0.203 s⁻¹

Compound: Cc1cc(N2CCOCC2)cc2[nH]c(-c3c(NC[C@@H](O)c4cccc(Cl)c4)cc[nH]c3=O)nc12
- dissociation rate constant koff [1]: 0.0993 s⁻¹
- apparent dissociation constant Kd [2]: 402 µM

Compound: Nc1ncccc1-c1nc2ccc(-c3ccccc3)nc2n1-c1ccc(C2(N)CCC2)cc1
- dissociation rate constant koff [1]: 0.0774 s⁻¹

Compound: C=CC(=O)Nc1cc2c(Nc3ccc(F)c(Cl)c3)ncnc2cc1OCCCN1CCOCC1
- dissociation rate constant koff [1]: 0.181 s⁻¹
- apparent dissociation constant Kd [2]: 3470 µM

Compound: NC(=O)Nc1cc(-c2cccc(F)c2)sc1C(=O)N[C@H]1CCCNC1
- dissociation rate constant koff [1]: 0.232 s⁻¹
- apparent dissociation constant Kd [2]: 163 µM

Compound: COc1cc(C(=O)NC2CCN(C)CC2)c(F)cc1Nc1ncc2c(n1)N(C1CCCC1)CC(F)(F)C(=O)N2C
- dissociation rate constant koff [1]: 0.124 s⁻¹

Compound: CCCCNc1ncc2c(-c3ccc(CN4CCN(C)CC4)cc3)cn(C3CCC(O)CC3)c2n1 (configuration not stated)
- dissociation rate constant koff [1]: 0.0359 s⁻¹
- apparent dissociation constant Kd [2]: 29.1 µM

Compound: N=c1ccn2c(n1)O[C@H]1[C@H](O)[C@@H](CO)O[C@H]12
- dissociation rate constant koff [1]: 0.0256 s⁻¹
- apparent dissociation constant Kd [2]: 164 µM

Compound: O=C(NOCCO)c1ccc2cncn2c1Nc1ccc(I)cc1F
- dissociation rate constant koff [1]: 0.00787 s⁻¹
- apparent dissociation constant Kd [2]: 39 µM

Compound: Cc1cc(Nc2ncc(Cl)c(Nc3ccccc3S(=O)(=O)C(C)C)n2)c(OC(C)C)cc1C1CCNCC1
- dissociation rate constant koff [1]: 0.0458 s⁻¹ and 0.0643 s⁻¹
- apparent dissociation constant Kd [2]: 14100 µM and 12000 µM

Compound: Cn1cnc2c(ncn2[C@@H]2O[C@H](CO)[C@@H](O)[C@H]2O)c1=O
- dissociation rate constant koff [1]: 0.122 s⁻¹
- apparent dissociation constant Kd [2]: 36400 µM

Compound: O=C1c2c(O)cc(O)cc2O[C@H](c2cc(O)c(O)c(O)c2)[C@H]1O
- dissociation rate constant koff [1]: 0.00379 s⁻¹
- apparent dissociation constant Kd [2]: 15.5 µM

Compound: CN1CCN(S(=O)(=O)c2ccc(-c3cnc(N)c(C(=O)Nc4cccnc4)n3)cc2)CC1
- dissociation rate constant koff [1]: 0.0228 s⁻¹

Compound: Nc1ncnc2c1ncn2[C@@H]1O[C@@H]2COP(O)(=S)O[C@@H]3[C@H](O)[C@@H](COP(=O)(S)O[C@H]2[C@H]1O)O[C@H]3n1cnc2c(N)ncnc21 (some centres not stated)
- dissociation rate constant koff [1]: 0.0188 s⁻¹

Compound: O=C(Nc1ccc(OC(F)(F)Cl)cc1)c1cnc(N2CC[C@@H](O)C2)c(-c2ccn[nH]2)c1
- dissociation rate constant koff [1]: 0.268 s⁻¹

Compound: O=C(NCCCNC(=O)Nc1cccc(C2=NCCN2)c1)Nc1cccc(C2=NCCN2)c1
- dissociation rate constant koff [1]: 1.07 s⁻¹
- apparent dissociation constant Kd [2]: 1450 µM

Compound: COc1cc(C(=O)NC2CCN(C)CC2)ccc1Nc1ncc2c(n1)N(C1CCCC1)CC(F)(F)C(=O)N2C
- dissociation rate constant koff [1]: 0.0662 s⁻¹

Compound: CC(C)(C)c1cc(NC(=O)Nc2ccc(-c3cccc4c(N)nccc34)cc2)no1
- dissociation rate constant koff [1]: 0.0667 s⁻¹

Compound: C=CC(=O)Nc1cccc(-n2c(=O)cc(C)c3cnc(Nc4ccc(OCCN(C)C)cc4OC)nc32)c1
- dissociation rate constant koff [1]: 0.0208 s⁻¹
- apparent dissociation constant Kd [2]: 16.9 µM

Compound: Oc1ccc(Nc2nc(-c3ccc(Cl)cc3)cs2)cc1
- dissociation rate constant koff [1]: 0.00729 s⁻¹
- apparent dissociation constant Kd [2]: 40.3 µM

Compound: Cc1cc(-c2cc(O)ccc2Cl)cc2nnc(Nc3ccc(OCCN4CCCC4)cc3)nc12
- dissociation rate constant koff [1]: 0.00325 s⁻¹
- apparent dissociation constant Kd [2]: 615 µM

Compound: N#C/C(=C\c1ccc2oc(=O)[nH]c2c1)C(=O)c1ccc(O)c(O)c1
- dissociation rate constant koff [1]: 0.0133 s⁻¹
- apparent dissociation constant Kd [2]: 56.5 µM

Compound: COc1ccc2c(c1)c(C1=C(c3c[nH]c4ccccc34)C(=O)NC1=O)cn2CCCN(C)C
- dissociation rate constant koff [1]: 0.187 s⁻¹
- apparent dissociation constant Kd [2]: 142 µM
